# Source: the supplement of paper PMC3334620
# Over roughly 33,000 sequences, “E-score (-0.5 to 0.5)” has its median near -0.017; the highest 2% begin near 0.3. Some of the results follow.
# Molecular target: T1, Sut1 (UniProt P53032)
# T1 sequence: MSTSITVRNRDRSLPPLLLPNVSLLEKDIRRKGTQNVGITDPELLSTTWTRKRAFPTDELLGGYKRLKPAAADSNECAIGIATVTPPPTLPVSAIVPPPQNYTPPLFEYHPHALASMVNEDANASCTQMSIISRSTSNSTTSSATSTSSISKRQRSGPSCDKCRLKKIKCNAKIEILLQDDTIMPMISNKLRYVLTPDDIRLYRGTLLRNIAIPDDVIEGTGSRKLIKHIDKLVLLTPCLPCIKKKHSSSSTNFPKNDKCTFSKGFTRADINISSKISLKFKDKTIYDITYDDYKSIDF
# Test: PBM E-score (8-mer binding enrichment) (E-score (-0.5 to 0.5)); higher = stronger / more preferred TF binding; most listed sequences are background and not binding sites
# Settings: protein concentration: 200 nM; construct: GST-full length
# Summary of the method: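 Universal all-10-mer Agilent arrays, fresh or stripped once, were converted to double-stranded form by primer extension. GST-tagged yeast transcription factors from PURExpress in vitro transcription/translation, full-length or DNA-binding domain only, were applied at about 100-200 nM and detected with fluorescent anti-GST. After masliner normalisation, the Universal PBM Analysis Suite scored each ungapped eight-base word together with its reverse complement by E-score.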
row,Sequence,PBM E-score
1,ACTCACTG,0.0451
2,AAGTGTAA,0.0603
3,CAACGGCC,-0.142
4,AACAACAA,0.138
5,CGTGTGCA,-0.241
6,AAACGCGC,-0.123
7,CAAGTGGG,-0.173
8,CACCCGTC,-0.193
9,ACAGGTAG,-0.207
10,AGCAAGGA,-0.134
11,AGCCATTG,0.054
12,AAAGTCAT,0.00174
13,AGGACTAA,0.155
14,CACGAGGG,-0.33
15,GAGCGGAA,0.149
16,AATGTGAC,0.0297
17,AGATCCAC,0.103
18,AGTCGTAC,-0.0438
19,ATCCTCGG,0.157
20,AGAATAGC,0.0785
21,TGGAGCAA,-0.0175
22,ACGAGGGG,-0.289
23,GCGTTGAC,-0.146
24,CCCAATAA,0.0503
25,ACTGCGGG,-0.0769

row,Sequence,PBM E-score
1,ATCAGACG,-0.174
2,GCAGGTTA,-0.0255
3,AAATGACT,0.0507
4,TACTGCTA,-0.0311
5,AGGGCCCT,-0.282
6,AAACACAT,0.0664
7,ATCTGCTC,-0.0661
8,CCTCAAAC,-0.0345
9,CCACCCCG,-0.0489
10,AATGTCTC,0.0524
11,ATTCTAAG,0.118
12,CCCTCCCC,-0.157
13,AACAATGA,0.122
14,CTAGCTCC,0.15
15,AGGTCCGA,0.457
16,ACTCTTCT,-0.0622
17,GAAGAGGA,-0.143
18,CCCGCGCC,-0.198
19,AGTAGCCG,0.0748
20,ACTTCCAG,-0.166
21,AGAACGTA,-0.0667
22,AATTAGCG,0.138
23,TCATTGCA,-0.159
24,AGAGTAAT,0.228
25,GAACTCGC,-0.0582

row,Sequence,PBM E-score
1,TCTCAACA,0.15
2,AGGGACAG,-0.31
3,CAATGCGA,-0.0216
4,CGCCCAAC,-0.142
5,ACCGCTGG,-0.219
6,CCAATGCG,-0.0279
7,CTGCGGTA,-0.18
8,ACCATTTA,0.0448
9,GTTGAAGA,0.161
10,TTACCTAA,0.152
11,GGGCGTAC,-0.143
12,GAATATTA,0.255
13,AAACCGCC,-0.105
14,CCCAGCTA,-0.25
15,GCTCATCC,-0.181
16,ACGCCCCC,-0.199
17,CGCACGTA,-0.173
18,CAGGGATA,-0.208
19,TTCACAAA,0.156
20,GACCAAGA,0.0293
21,CAGACGTA,-0.161
22,GAGATTGA,0.202
23,ACCTGGAA,0.109
24,ATGCCGCA,-0.0794
25,CATTCCCA,-0.115

row,Sequence,PBM E-score
1,AGACGACA,0.0613
2,ATATCTGA,0.0283
3,ACCATAAG,-0.0746
4,ACAATTAA,0.255
5,CACCAACC,0.0104
6,ACAGTCAG,-0.0556
7,CAATCAGA,-0.145
8,AGAAGCGA,-0.0194
9,CACACTGG,-0.177
10,CGTGTCGC,-0.0154
11,AAACCATA,0.155
12,GAGCCATA,-0.0499
13,CCACGCGA,-0.213
14,AAGAGCAC,0.02
15,GAGCTAGC,0.00809
16,AAGATGAG,-0.183
17,GATAGTGA,0.156
18,CCAAGGGG,-0.143
19,CTCGCTAC,-0.0503
20,ATAACAGG,-0.129
21,CGTTAACA,-0.0173
22,CGGGAGTC,-0.11
23,AATAACGT,0.14
24,AACACTTA,0.0751
25,GCGAAAAC,0.00125

row,Sequence,PBM E-score
1,CATGGATA,-0.198
2,AAGGCGAT,-0.0862
3,CTGGGCGA,-0.296
4,ATCGCGAA,0.00184
5,GCCTCACA,0.0414
6,CGAGTTGC,-0.0494
7,ATCGACCG,-0.205
8,CGAGAAGA,0.0504
9,CGAAATCA,0.213
10,AAGTAACT,0.156
11,ACTGTTAT,0.217
12,ATCTGCAT,-0.0643
13,ACAAACGA,0.232
14,CCAGCCGG,0.0891
15,TCAGTGGA,-0.0596
16,TCAAAAAA,0.224
17,TGCACGAA,0.18
18,AGTGATAG,0.122
19,ATGAGTGA,0.0605
20,AGGTAAGC,-0.0241
21,TCAACCCA,-0.063
22,CTCGGCTC,-0.0596
23,CAGAAGTA,0.0312
24,GCAGCCAA,-0.0277
25,CATGGGGC,-0.312

row,Sequence,PBM E-score
1,CACTGAGG,-0.0713
2,ATTCTGAC,-0.0784
3,GCTCTAAC,-0.118
4,CCAGAATC,-0.0221
5,CATCATTC,0.0139
6,TGTAGTAA,0.222
7,AATTGAAA,0.125
8,ATGTGAAG,0.0256
9,GATAATCA,0.107
10,GTTAGACA,0.193
11,GTCGAGTA,-0.0477
12,AACGCGAA,0.0627
13,AGTGAGTA,0.26
14,ACGCCGCC,-0.084
15,CGCCTCAA,-0.0984
16,AATGCGTG,-0.151
17,AATCCGGA,0.368
18,CACTTTTA,0.225
19,CGTGTGTA,0.0883
20,ATAACTAT,0.253
21,TACTAATA,0.181
22,GGCATGAC,-0.381
23,CGGTGACG,0.00302
24,GCGCGCAC,-0.101
25,CTCATCTC,0.109

row,Sequence,PBM E-score
1,CCAGCGGC,-0.131
2,CTAGTAGC,0.0397
3,GCCCAGAA,-0.0411
4,CCTTAGCG,-0.112
5,ATTGAAGC,0.113
6,CCAACACA,0.0923
7,TATTTGAA,0.247
8,AATCGCAT,0.0231
9,AAGGTCTA,-0.127
10,CTTAGACA,-0.276
11,ACTCATAC,0.0873
12,ACTACGAG,-0.113
13,CCTGCTCA,-0.19
14,CCGCTGAA,0.0915
15,GCCTTGAC,-0.0825
16,AAGTAACA,0.0286
17,AAAAAGGT,0.0915
18,GGGGTACC,-0.172
19,CTGGGGAC,-0.282
20,ACTTGGTA,0.0271
21,ATACAGTG,0.0667
22,AGTTATTC,0.201
